Source: publication PMC8419691
Results are given in words; binding and its absence hold for the method and conditions named. Binding seen in cells or lysates may run through a third protein. Some results given as binding are weak or reduced against the parent protein; the word gives no strength. One block for each substance: values may come before it.

Chains of the proteins cited; added tags and fusions are not shown. Lines headed by an entry give the natural chain unless they say otherwise; changes in a name come on top. Residues count along the entry.
UniProt Q04206: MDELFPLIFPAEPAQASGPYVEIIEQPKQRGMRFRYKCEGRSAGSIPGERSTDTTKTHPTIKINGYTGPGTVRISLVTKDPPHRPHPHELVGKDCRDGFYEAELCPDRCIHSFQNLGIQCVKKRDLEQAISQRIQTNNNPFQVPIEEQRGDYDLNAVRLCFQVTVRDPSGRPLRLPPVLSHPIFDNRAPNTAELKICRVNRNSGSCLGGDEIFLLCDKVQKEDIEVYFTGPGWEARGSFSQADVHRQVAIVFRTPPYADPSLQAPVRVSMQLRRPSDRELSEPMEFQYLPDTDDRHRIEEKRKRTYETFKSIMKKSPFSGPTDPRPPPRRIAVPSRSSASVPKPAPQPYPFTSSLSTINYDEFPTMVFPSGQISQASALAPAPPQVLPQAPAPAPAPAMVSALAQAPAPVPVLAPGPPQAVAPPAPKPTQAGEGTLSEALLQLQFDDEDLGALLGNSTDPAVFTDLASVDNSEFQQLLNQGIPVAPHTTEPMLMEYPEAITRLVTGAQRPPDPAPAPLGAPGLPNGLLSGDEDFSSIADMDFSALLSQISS
UniProt Q12834: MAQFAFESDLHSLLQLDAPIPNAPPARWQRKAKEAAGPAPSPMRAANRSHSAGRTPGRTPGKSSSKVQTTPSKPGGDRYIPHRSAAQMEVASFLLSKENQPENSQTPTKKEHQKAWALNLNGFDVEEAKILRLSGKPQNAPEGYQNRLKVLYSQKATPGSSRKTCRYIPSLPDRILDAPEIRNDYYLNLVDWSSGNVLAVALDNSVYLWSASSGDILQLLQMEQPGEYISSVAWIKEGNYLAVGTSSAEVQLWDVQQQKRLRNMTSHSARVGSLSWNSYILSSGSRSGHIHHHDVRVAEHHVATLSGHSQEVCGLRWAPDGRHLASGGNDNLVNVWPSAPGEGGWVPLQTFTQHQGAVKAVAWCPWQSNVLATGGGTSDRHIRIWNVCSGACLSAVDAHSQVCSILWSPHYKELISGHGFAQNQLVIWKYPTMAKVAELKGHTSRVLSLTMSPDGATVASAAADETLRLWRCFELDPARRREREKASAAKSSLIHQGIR
Myc-CDC20 1-170 fragment (lacking WD40 domain): residues 1-170 of Q12834
Myc-CDC20 171-499 fragment (containing WD40 domain): residues 171-499 of Q12834
UniProt Q9JJ66: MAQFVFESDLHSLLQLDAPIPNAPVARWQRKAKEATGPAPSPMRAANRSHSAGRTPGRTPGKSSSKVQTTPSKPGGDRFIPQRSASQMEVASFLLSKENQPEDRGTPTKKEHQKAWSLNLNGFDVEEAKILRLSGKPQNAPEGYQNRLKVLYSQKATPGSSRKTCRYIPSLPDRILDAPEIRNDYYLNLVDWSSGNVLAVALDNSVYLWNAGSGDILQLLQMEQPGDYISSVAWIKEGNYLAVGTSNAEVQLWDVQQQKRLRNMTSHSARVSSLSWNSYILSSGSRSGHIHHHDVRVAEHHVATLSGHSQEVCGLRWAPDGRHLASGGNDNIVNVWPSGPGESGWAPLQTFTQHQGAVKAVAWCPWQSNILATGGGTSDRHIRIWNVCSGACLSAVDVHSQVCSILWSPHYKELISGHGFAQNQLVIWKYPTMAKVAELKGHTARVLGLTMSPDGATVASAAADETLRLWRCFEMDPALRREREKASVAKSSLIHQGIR
UniProt Q9NYG5: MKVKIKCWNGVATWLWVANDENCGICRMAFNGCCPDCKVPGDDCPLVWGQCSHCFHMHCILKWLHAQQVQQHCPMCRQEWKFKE
UniProt Q9UJX6: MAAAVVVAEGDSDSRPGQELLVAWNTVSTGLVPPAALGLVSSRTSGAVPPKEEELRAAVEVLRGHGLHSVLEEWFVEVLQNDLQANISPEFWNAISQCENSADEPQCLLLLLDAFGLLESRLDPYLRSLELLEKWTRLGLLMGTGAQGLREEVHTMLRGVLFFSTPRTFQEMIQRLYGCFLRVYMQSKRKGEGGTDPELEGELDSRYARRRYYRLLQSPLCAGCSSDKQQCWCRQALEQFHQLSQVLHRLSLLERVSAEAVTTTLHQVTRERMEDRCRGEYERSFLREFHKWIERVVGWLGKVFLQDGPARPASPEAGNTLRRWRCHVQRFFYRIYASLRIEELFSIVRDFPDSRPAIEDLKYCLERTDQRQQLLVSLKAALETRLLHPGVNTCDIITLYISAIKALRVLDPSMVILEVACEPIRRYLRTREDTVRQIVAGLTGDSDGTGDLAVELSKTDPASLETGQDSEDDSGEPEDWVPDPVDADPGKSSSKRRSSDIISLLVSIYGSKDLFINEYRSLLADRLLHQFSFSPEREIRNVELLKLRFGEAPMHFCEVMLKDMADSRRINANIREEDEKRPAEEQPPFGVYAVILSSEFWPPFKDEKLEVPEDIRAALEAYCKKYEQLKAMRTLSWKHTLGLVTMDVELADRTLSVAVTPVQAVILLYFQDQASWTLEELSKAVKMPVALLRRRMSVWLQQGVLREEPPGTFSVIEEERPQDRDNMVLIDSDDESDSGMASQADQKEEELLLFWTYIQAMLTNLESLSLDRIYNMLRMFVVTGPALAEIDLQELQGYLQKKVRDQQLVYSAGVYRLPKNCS
UniProt Q04207: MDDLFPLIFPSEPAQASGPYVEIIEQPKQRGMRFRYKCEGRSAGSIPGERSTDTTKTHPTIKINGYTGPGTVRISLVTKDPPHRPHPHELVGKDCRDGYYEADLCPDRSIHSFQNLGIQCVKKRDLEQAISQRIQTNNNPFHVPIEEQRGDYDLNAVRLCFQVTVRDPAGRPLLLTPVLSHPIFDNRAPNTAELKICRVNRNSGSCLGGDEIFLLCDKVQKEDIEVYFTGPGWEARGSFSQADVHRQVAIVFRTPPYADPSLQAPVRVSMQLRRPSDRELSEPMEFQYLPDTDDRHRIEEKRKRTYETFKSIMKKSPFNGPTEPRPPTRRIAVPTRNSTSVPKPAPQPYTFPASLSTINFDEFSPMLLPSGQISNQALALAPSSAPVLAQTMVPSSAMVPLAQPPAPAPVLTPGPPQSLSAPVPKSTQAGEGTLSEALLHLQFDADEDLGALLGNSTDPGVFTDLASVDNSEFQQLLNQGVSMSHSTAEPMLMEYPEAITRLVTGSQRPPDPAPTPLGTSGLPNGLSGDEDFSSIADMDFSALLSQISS

What was measured:
GST-p65 = GST-p65 (UniProt Q04206); test: pull-down; GST fusion protein on glutathione sepharose incubated with HEK293T whole-cell lysate; washes with 0.1 mM EDTA, 0.5% Nonidet P-40, 20 mM Tris pH 7.4, 300 mM NaCl; immunoblot with anti-CDC20 or anti-p65; only the target purified
Flag-tagged p65 = Flag-tagged p65 (UniProt Q04206); test: co-IP; HEK293T whole-cell lysates in Nonidet P-40 buffer; 4-6 µg antibody, 4°C 8-12 h, Protein A/G-agarose beads; ectopic and/or endogenous proteins; for APC11 with p65 also in NC, CDC20sh and CDH1sh cells
[1] = target: endogenous CDC20 (human (endogenous in HEK293T and hBMSCs)) (UniProt Q12834); test: as above
[2] = target: Myc-CDC20 171-499 fragment (containing WD40 domain) (UniProt Q12834); test: as above
[3] = target: endogenous CDC20 in mouse BMSCs (mouse (endogenous in mBMSCs)) (UniProt Q9JJ66); test: co-IP; mouse BMSC lysates, endogenous proteins; Nonidet P-40 buffer, Protein A/G-agarose beads
GST-CDC20 = GST-CDC20 (UniProt Q12834); test: pull-down; GST fusion protein on glutathione sepharose incubated with HEK293T whole-cell lysate; washes with 0.1 mM EDTA, 0.5% Nonidet P-40, 20 mM Tris pH 7.4, 300 mM NaCl; immunoblot with anti-CDC20 or anti-p65; only the target purified
[4] = target: endogenous APC11 (human (endogenous in HEK293T)) (UniProt Q9NYG5); test: co-IP; HEK293T whole-cell lysates in Nonidet P-40 buffer; 4-6 µg antibody, 4°C 8-12 h, Protein A/G-agarose beads; ectopic and/or endogenous proteins; for APC11 with p65 also in NC, CDC20sh and CDH1sh cells
[5] = target: Myc-CDC20 1-170 fragment (lacking WD40 domain) (UniProt Q12834); test: as above
APC2 (human) = APC2 (human) (UniProt Q9UJX6); test: as above
Myc-tagged CDC20 = Myc-tagged CDC20 (UniProt Q12834); test: as above
[6] = target: endogenous CDC20 (human (endogenous in HEK293T and hBMSCs)) (UniProt Q12834); test: co-IP; hBMSC lysates, endogenous proteins; Nonidet P-40 buffer, Protein A/G-agarose beads

Substance: Flag-p65 311-551 fragment (lacking RHD domain) (from UniProt Q04206 311-551) (domain or fragment)
- binding [1]: no binding

Substance: Flag-p65 1-310 fragment (containing RHD domain) (from UniProt Q04206 1-310) (domain or fragment)
- binding [2]: binds
- binding [1]: binds

Substance: endogenous p65 in mouse BMSCs (from UniProt Q04207 1-549)
- binding [3]: binds

Next, values leading:

- binding (GST-p65): binds
- binding (Flag-tagged p65): binds
Substance: endogenous CDC20 (from UniProt Q12834 1-499)

- binding (GST-CDC20): binds
- binding [4]: binds
- binding [5]: no binding
- binding (APC2 (human)): no binding
- binding [2]: binds
- binding [1]: binds
- binding (Myc-tagged CDC20): binds
- binding [6]: binds
Substance: endogenous p65 (from UniProt Q04206 1-551)

- binding (Myc-tagged CDC20): binds
Substance: Flag-tagged p65 (from UniProt Q04206 1-551)
